Laboratory results taken from a compilation of properties of binary mixtures (doi:10.1021/ie302343v).
Some of these densities may be calculated back from excess volumes.

Assay: xn = mol fraction of the nth substance listed
Details: 101 kPa

CCCOC(C)=O + CCCCCC(=O)[O-].C[NH2+]CCO
x1 = 1
Details | mass density [kg/m3]
293.15 K | 888.2
298.15 K | 882.6
318.15 K | 860
323.15 K | 854.3
328.15 K | 848.5

CCOC(C)=O + CCCCCC(=O)[O-].C[NH2+]CCO
x1 = 1
Details | mass density [kg/m3]
288.22 K | 907
293.14 K | 901
298.15 K | 894.9
303.15 K | 888.8
313.16 K | 876.3
318.16 K | 870.1

COC(C)=O + CCCCCC(=O)[O-].C[NH2+]CCO
x1 = 1
Details | mass density [kg/m3]
288.15 K | 939.9
293.14 K | 933.4
298.14 K | 926.8
303.14 K | 920.2
308.14 K | 913.5
318.14 K | 899.9
323.15 K | 893
328.15 K | 886

CCCCCC(=O)[O-].C[NH2+]CCO + CCCOC(C)=O
Details | mass density [kg/m3]
288.15 K, x2 = 0 | 1001.1
288.15 K, x2 = 0.0454 | 998.9
288.15 K, x2 = 0.1089 | 994.9
288.15 K, x2 = 0.6005 | 957.5
288.15 K, x2 = 0.8036 | 930.8
288.16 K, x2 = 0.304 | 982
288.16 K, x2 = 0.4022 | 976.4
288.16 K, x2 = 0.4999 | 968.2
288.16 K, x2 = 0.8978 | 913.7
293.14 K, x2 = 0.0454 | 995.7
293.14 K, x2 = 0.2022 | 984.9
293.14 K, x2 = 0.8978 | 908.5
293.15 K, x2 = 0 | 997.6
293.15 K, x2 = 0.304 | 978.1
293.15 K, x2 = 0.4999 | 964.1
293.15 K, x2 = 0.6005 | 953.1
293.15 K, x2 = 0.7024 | 940.2
293.15 K, x2 = 0.9489 | 898.5
298.14 K, x2 = 0.0454 | 991.5
298.14 K, x2 = 0.4022 | 968.5
298.15 K, x2 = 0.1089 | 987.4
298.15 K, x2 = 0.2022 | 980.8
298.15 K, x2 = 0.6005 | 948.8
298.15 K, x2 = 0.8036 | 921.1
298.15 K, x2 = 0.8978 | 903.2
298.15 K, x2 = 0.9489 | 893
303.14 K, x2 = 0.1089 | 983.6
303.14 K, x2 = 0.2022 | 976.8
303.14 K, x2 = 0.304 | 969.9
303.14 K, x2 = 0.4022 | 964.5
303.14 K, x2 = 0.4999 | 955.8
303.14 K, x2 = 0.7024 | 930.9
303.15 K, x2 = 0 | 990.7
303.15 K, x2 = 0.6005 | 944.4
303.15 K, x2 = 0.8036 | 916.1
303.15 K, x2 = 0.8978 | 897.9
303.15 K, x2 = 0.9489 | 887.5
308.14 K, x2 = 0.0454 | 984
308.14 K, x2 = 0.1089 | 979.9
308.14 K, x2 = 0.304 | 965.8
308.14 K, x2 = 0.4022 | 960.5
308.14 K, x2 = 0.7024 | 926.2
308.14 K, x2 = 0.8036 | 911.2
308.15 K, x2 = 0.4999 | 951.6
308.15 K, x2 = 0.6005 | 940
308.15 K, x2 = 0.8978 | 892.6
308.15 K, x2 = 0.9489 | 882
313.14 K, x2 = 0 | 983.6
313.14 K, x2 = 0.0454 | 980.2
313.14 K, x2 = 0.1089 | 974.3
313.14 K, x2 = 0.2022 | 968.7
313.14 K, x2 = 0.304 | 961.4
313.14 K, x2 = 0.4022 | 956.5
313.14 K, x2 = 0.4999 | 947.4
313.14 K, x2 = 0.8978 | 887.2
313.14 K, x2 = 0.9489 | 876.5
313.15 K, x2 = 0.6005 | 935.5
318.14 K, x2 = 0.4999 | 943.1
318.14 K, x2 = 0.7024 | 916.8
318.14 K, x2 = 0.9489 | 870.9
318.15 K, x2 = 0 | 980.2
318.15 K, x2 = 0.0454 | 975.9
318.15 K, x2 = 0.8978 | 881.8
323.14 K, x2 = 0.304 | 952.7
323.14 K, x2 = 0.4999 | 938.8
323.14 K, x2 = 0.7024 | 912
323.14 K, x2 = 0.8036 | 896
323.14 K, x2 = 0.8978 | 876.4
323.15 K, x2 = 0 | 976.7
323.15 K, x2 = 0.1089 | 967.1
323.15 K, x2 = 0.6005 | 926.5
328.14 K, x2 = 0.4999 | 934.6
328.14 K, x2 = 0.7024 | 907.2
328.14 K, x2 = 0.8978 | 871.2
328.14 K, x2 = 0.9489 | 859.7
328.15 K, x2 = 0 | 973.1
328.15 K, x2 = 0.0454 | 967.1
328.15 K, x2 = 0.1089 | 963.5
328.15 K, x2 = 0.2022 | 956.7
328.15 K, x2 = 0.6005 | 922
328.15 K, x2 = 0.8036 | 890.9
